Experimental data published in US7160888B2, “[1,8]naphthyridin-2-ones and related compounds for the treatment of schizophrenia” (Warner Lambert Company LLC, priority 2003, dated 2007).

Target: dopamine D2 receptor (Homo sapiens, UniProt P14416)
Assay: biochemical
Details: D2 Ki (nM), 0.4 nM [3H]spiperone, CHO-hD2L membranes

UniProt P14416, sequence (P14416 whole entry): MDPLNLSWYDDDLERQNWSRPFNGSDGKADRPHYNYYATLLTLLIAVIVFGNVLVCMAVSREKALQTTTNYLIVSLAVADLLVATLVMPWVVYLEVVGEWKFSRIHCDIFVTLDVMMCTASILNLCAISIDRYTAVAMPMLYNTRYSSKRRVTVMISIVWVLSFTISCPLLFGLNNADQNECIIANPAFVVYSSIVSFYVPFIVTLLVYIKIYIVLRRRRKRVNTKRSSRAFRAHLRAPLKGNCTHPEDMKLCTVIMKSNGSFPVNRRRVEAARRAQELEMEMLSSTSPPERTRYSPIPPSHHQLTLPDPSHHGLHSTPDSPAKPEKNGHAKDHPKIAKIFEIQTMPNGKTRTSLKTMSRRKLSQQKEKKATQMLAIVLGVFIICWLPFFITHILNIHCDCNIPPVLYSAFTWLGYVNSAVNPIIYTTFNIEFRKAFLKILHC

| Compound | Ki (Table 1) [nM] | Ki (Table 2) [nM] |
| --- | --- | --- |
| O=c1ccc2ccc(OCCCCN3CCN(c4ccc(F)cc4Cl)CC3)nc2[nH]1 [Example B23, 7-{4-[4-(2-Chloro-4-fluoro-phenyl)-piperazin-1-yl]-butoxy}-1H-[1,8]naphthyridin-2-one] | 2.5 | – |
| O=c1ccc2ccc(OCCCCN3CCN(c4cccc5nccnc45)CC3)nc2[nH]1 [Example B23′, 7-[4-(4-Quinoxalin-5-yl-piperazin-1-yl)-butoxy]-1H-[1,8]naphthyridin-2-one] | – | 5.5 |
| O=c1ccc2ccc(OCCCCN3CCN(c4ccc(F)c(Cl)c4Cl)CC3)nc2[nH]1 [Example B24, 7-{4-[4-(2,3-Dichloro-4-fluoro-phenyl)-piperazin-1-yl]-butoxy}-1H-[1,8]naphthyridin-2-one] | 4.6 | – |
| O=c1ccc2ccc(OCCCCN3CCN(c4cccc5[nH]ccc45)CC3)nc2[nH]1 [Example B24′, 7-{4-[4-(1H-Indol-4-yl)-piperazin-1-yl]-butoxy}-1H-[1,8]naphthyridin-2-one] | – | 0.8 |
| O=c1ccc2ccc(OCCCCN3CCN(c4cccc5sccc45)CC3)nc2[nH]1 [Example B25′, 7-[4-(4-Benzo[b]thiophen-4-yl-piperazin-1-yl)-butoxy]-1H-[1,8]naphthyridin-2-one] | – | 1 |
| O=c1ccc2ccc(OCCCCN3CCN(c4ccccc4-c4ccccc4)CC3)nc2[nH]1 [Example B26, 7-[4-(4-Biphenyl-2-yl-piperazin-1-yl)-butoxy]-1H-[1,8]naphthyridin-2-one] | 11.5 | – |
| O=c1ccc2ccc(OCCCCN3CCN(c4cccc5ccoc45)CC3)nc2[nH]1 [Example B26′, 7-[4-(4-Benzofuran-7-yl-piperazin-1-yl)-butoxy]-1H-[1,8]naphthyridin-2-one] | – | 1.2 |
| COc1cccc(N2CCN(CCCCOc3ccc4ccc(=O)[nH]c4n3)CC2)c1C [Example B27, 7-{4-[4-(3-Methoxy-2-methyl-phenyl)-piperazin-1-yl]-butoxy}-1H-[1,8]naphthyridin-2-one] | 9.8 | – |
| CC(=O)N1CCCc2c(N3CCN(CCCCOc4ccc5ccc(=O)[nH]c5n4)CC3)cccc21 [Example B27′, 7-{4-[4-(1-Acetyl-1,2,3,4-tetrahydro-quinolin-5-yl)-piperazin-1-yl]-butoxy}-1H-[1,8]naphthyridin-2-one] | – | 17.9 |
| O=c1ccc2ccc(OCCCCN3CCN(c4cccc(F)c4Cl)CC3)nc2[nH]1 [Example B28, 7-{4-[4-(2-Chloro-3-fluoro-phenyl)-piperazin-1-yl]-butoxy}-1H-[1,8]naphthyridin-2-one] | 1.4 | – |
| CN1CCCc2c1cccc2N1CCN(CCCCOc2ccc3ccc(=O)[nH]c3n2)CC1 [Example B28′, 7-{4-[4-(1-Methyl-1,2,3,4-tetrahydro-quinolin-5-yl)-piperazin-1-yl]-butoxy}-1H-[1,8]naphthyridin-2-one] | – | 7.5 |
| O=c1ccc2ccc(OCCCCN3CCN(c4cccc(C5CC5)n4)CC3)nc2[nH]1 [Example B29, 7-{4-[4-(6-Cyclopropyl-pyridin-2-yl)-piperazin-1-yl]-butoxy}-1H-[1,8]naphthyridin-2-one] | 1 | – |
| CCN1CCCc2c1cccc2N1CCN(CCCCOc2ccc3ccc(=O)[nH]c3n2)CC1 [Example B29′, 7-{4-[4-(1-Ethyl-1,2,3,4-tetrahydro-quinolin-5-yl)-piperazin-1-yl]-butoxy}-1H-[1,8]naphthyridin-2-one] | – | 31.9 |
| O=c1ccc2ccc(OCCCCN3CCN(c4ncccn4)CC3)nc2[nH]1 [Example B30, 7-[4-(4-Pyrimidin-2-yl-piperazin-1-yl)-butoxy]-1H-[1,8]naphthyridin-2-one] | 28 | – |
| COc1ccc2cccc(N3CCN(CCCCOc4ccc5ccc(=O)[nH]c5n4)CC3)c2n1 [Example B30′, 7-{4-[4-(2-Methoxy-quinolin-8-yl)-piperazin-1-yl]-butoxy}-1H-[1,8]naphthyridin-2-one] | – | 1 |
| COc1ccnc(N2CCN(CCCCOc3ccc4ccc(=O)[nH]c4n3)CC2)n1 [Example B31, 7-{4-[4-(4-Methoxy-pyrimidin-2-yl)-piperazin-1-yl]-butoxy}-1H-[1,8]naphthyridin-2-one] | 69.5 | – |
| CCOc1ccc2cccc(N3CCN(CCCCOc4ccc5ccc(=O)[nH]c5n4)CC3)c2n1 [Example B31′, 7-{4-[4-(2-Ethoxy-quinolin-8-yl)-piperazin-1-yl]-butoxy}-1H-[1,8]naphthyridin-2-one] | – | 0.6 |
| O=c1ccc2ccc(OCCCCN3CCN(c4cccc5c4CCC5)CC3)nc2[nH]1 [Example B32, 7-[4-(4-Indan-4-yl-piperazin-1-yl)-butoxy]-1H-[1,8]naphthyridin-2-one] | < 2 | – |
| CN(C)c1ccc2cccc(N3CCN(CCCCOc4ccc5ccc(=O)[nH]c5n4)CC3)c2n1 [Example B32′, 7-{4-[4-(2-Dimethylamino-quinolin-8-yl)-piperazin-1-yl]-butoxy}-1H-[1,8]naphthyridin-2-one] | – | 1.4 |

| Compound | Ki (Table 1) [nM] | Ki (Table 2) [nM] |
| --- | --- | --- |
| CNc1ccc2cccc(N3CCN(CCCCOc4ccc5ccc(=O)[nH]c5n4)CC3)c2n1 [Example B33′, 7-{4-[4-(2-Methylamino-quinolin-8-yl)-piperazin-1-yl]-butoxy}-1H-[1,8]naphthyridin-2-one] | – | 4.2 |
| O=c1ccc2ccc(OCCCCN3CCN(c4cccc5ncc(F)cc45)CC3)nc2[nH]1 [Example B34′, 7-{4-[4-(3-Fluoro-quinolin-5-yl)-piperazin-1-yl]-butoxy}-1H-[1,8]naphthyridin-2-one] | – | 0.7 |
| O=C1CCCc2cccc(N3CCN(CCCCOc4ccc5ccc(=O)[nH]c5n4)CC3)c21 [Example B35, 7-{4-[4-(8-Oxo-5,6,7,8-tetrahydro-naphthalen-1-yl)-piperazin-1-yl]-butoxy}-1H-[1,8]naphthyridin-2-one] | 0.4 | – |
| O=c1ccc2ccc(OCCCCN3CCN(c4cccc5cc(F)cnc45)CC3)nc2[nH]1 [Example B35′, 7-{4-[4-(3-Fluoro-quinolin-8-yl)-piperazin-1-yl]-butoxy}-1H-[1,8]naphthyridin-2-one] | – | 0.4 |
| CC1(C)CCc2cccc(N3CCN(CCCCOc4ccc5ccc(=O)[nH]c5n4)CC3)c2C1=O [Example B36, 7-{4-[4-(7,7-Dimethyl-8-oxo-5,6,7,8-tetrahydro-naphthalen-1-yl)-piperazin-1-yl]-butoxy}-1H-[1,8]naphthyridin-2-one] | 3 | – |
| O=c1ccc2ccc(OCCCCN3CCN(c4cccc5ccc(=O)[nH]c45)CC3)nc2[nH]1 [Example B36′, 7-{4-[4-(2-Oxo-1,2-dihydro-quinolin-8-yl)-piperazin-1-yl]-butoxy}-1H-[1,8]naphthyridin-2-one] | – | 12.9 |
| CC1(C)CCc2cccc(N3CCN(CCCCOc4ccc5ccc(=O)[nH]c5n4)CC3)c2C1 [Example B37, 7-{4-[4-(7,7-Dimethyl-5,6,7,8-tetrahydro-naphthalen-1-yl)-piperazin-1-yl]-butoxy}-1H-[1,8]naphthyridin-2-one] | 4 | – |
| O=C1CCc2cccc(N3CCN(CCCCOc4ccc5ccc(=O)[nH]c5n4)CC3)c2N1 [Example B37′, 7-{4-[4-(2-Oxo-1,2,3,4-tetrahydro-quinolin-8-yl)-piperazin-1-yl]-butoxy}-1H-[1,8]naphthyridin-2-one] | – | 3.2 |
| O=C1c2c(cccc2N2CCN(CCCCOc3ccc4ccc(=O)[nH]c4n3)CC2)CCC1(F)F [Example B38, 7-{4-[4-(7,7-Difluoro-8-oxo-5,6,7,8-tetrahydro-naphthalen-1-yl)-piperazin-1-yl]-butoxy}-1H-[1,8]naphthyridin-2-one] | 0.6 | – |
| CN1C(=O)CCc2cccc(N3CCN(CCCCOc4ccc5ccc(=O)[nH]c5n4)CC3)c21 [Example B38′, 7-{4-[4-(1-Methyl-2-oxo-1,2,3,4-tetrahydro-quinolin-8-yl)-piperazin-1-yl]-butoxy}-1H-[1,8]naphthyridin-2-one] | – | 3 |
| O=c1ccc2ccc(OCCCCN3CCN(c4cccc5c4CC(F)(F)CC5)CC3)nc2[nH]1 [Example B39, 7-{4-[4-(7,7-Difluoro-5,6,7,8-tetrahydro-naphthalen-1-yl)-piperazin-1-yl]-butoxy}-1H-[1,8]naphthyridin-2-one] | 1 | – |
| O=c1ccc2ccc(OCCCCN3CCN(c4cccc5nonc45)CC3)nc2[nH]1 [Example B39′, 7-[4-(4-Benzo[1,2,5]oxadiazol-4-yl-piperazin-1-yl)-butoxy]-1H-[1,8]naphthyridin-2-one] | – | 5.7 |
| O=C1CCc2cccc(N3CCN(CCCCOc4ccc5ccc(=O)[nH]c5n4)CC3)c2C1 [Example B40, 7-{4-[4-(7-Oxo-5,6,7,8-tetrahydro-naphthalen-1-yl)-piperazin-1-yl]-butoxy}-1H-[1,8]naphthyridin-2-one] | 1.4 | – |
| O=c1ccc2ccc(OCCCCN3CCN(c4cccc5nsnc45)CC3)nc2[nH]1 [Example B40′, 7-[4-(4-Benzo[1,2,5]thiadiazol-4-yl-piperazin-1-yl)-butoxy]-1H-[1,8]naphthyridin-2-one] | – | 3.9 |
| O=c1ccc2ccc(OCCCCN3CCN(c4cccc5c4CC(O)CC5)CC3)nc2[nH]1 (centres unmarked) [Example B41, 7-{4-[4-(7-Hydroxy-5,6,7,8-tetrahydro-naphthalen-1-yl)-piperazin-1-yl]-butoxy}-1H-[1,8]naphthyridin-2-one] | 4.2 | – |
| O=c1ccc2ccc(OCCCCN3CCN(c4cccc5nc(C(F)(F)F)[nH]c45)CC3)nc2[nH]1 [Example B41′, 7-{4-[4-(2-Trifluoromethyl-3H-benzoimidazol-4-yl)-piperazin-1-yl]-butoxy}-1H-[1,8]naphthyridin-2-one] | – | 0.8 |
| O=C1CCCc2c1cccc2N1CCN(CCCCOc2ccc3ccc(=O)[nH]c3n2)CC1 [Example B42, 7-{4-[4-(5-Oxo-5,6,7,8-tetrahydro-naphthalen-1-yl)-piperazin-1-yl]-butoxy}-1H-[1,8]naphthyridin-2-one] | 8.5 | – |
| O=c1ccc2ccc(OCCCCN3CCN(c4cccc5c4CCCC5(F)F)CC3)nc2[nH]1 [Example B43, 7-{4-[4-(5,5-Difluoro-5 6,7,8-tetrahydro-naphthalen-1-yl)-piperazin-1-yl]-butoxy}-1H-[1,8]naphthyridin-2-one] | 3 | – |
| O=C1CCc2cccc(N3CCN(CCCCOc4ccc5ccc(=O)[nH]c5n4)CC3)c21 [Example B44, 7-{4-[4-(3-Oxo-indan-4-yl)-piperazin-1-yl]-butoxy}-1H-[1,8]naphthyridin-2-one] | 0.7 | – |
